# Data from PubChem BioAssay AID686978 (National Center for Advancing Translational Sciences (NCATS), 2013).
# The campaign covered roughly 420,000 compounds. About 64,000 (15%) were called active. The shares of active, inactive and inconclusive entries below differ from those in the screen. The call rests on the fitted dose curve; in most records, active means well fitted inhibition curve with a large enough effect; inconclusive means small, poorly fitted or top-dose-only effect; inactive means flat fitted curve, though single readings scatter. No potency is given beside an inconclusive call; the fits are too rough.
# Experiment: qHTS for Inhibitors of human tyrosyl-DNA phosphodiesterase 1 (TDP1): qHTS in cells in absence of CPT; further: nearly all actives have a fitted effect of over 55% in size
# Settings: DT40 Tdp1-/- hTDP1 cells, no CPT, ATP luminescence, 48 h; activity change, negative = growth inhibition: at 46.2 µM (top of the series)
# In short: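 Stably hTDP1-transfected Tdp1-null chicken DT40 cells were treated with library compounds minus camptothecin and grown for at least 48 hr at 37 °C, after which cellular ATP was quantified by luminescence.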
# On the % scale 0 is the no-effect control and ±100 the full control effect; potency means the concentration at half of the fitted maximal effect; tags describe the fitted curve by direction and shape.
SMILES,Potency,"activity change, negative = growth inhibition"
COc1ccc(-c2noc(CCCCC(=O)N3CCN(c4cc(C)ccc4C)CC3)n2)cc1,active: 2.91 µM,–
O=C1Nc2ccccc2C1=NN1CCCCCC1,"inconclusive [inhibitor, partial curve, poor fit]",–
NS(=O)(=O)c1ccc(NC(=O)CNC(=O)c2ccc3c(c2)OCO3)cc1,inactive,–
CCOc1ccc(OCC)c(NC(=O)C2CCN(S(=O)(=O)c3c(C)[nH]c(=O)[nH]c3=O)CC2)c1,"inconclusive [inhibitor, single point]",–
COc1ccc([C@H]2CC(=O)C=C(c3cc(OC)ccc3OC)C2)cc1,active: 14.6 µM,–
O=C(NCc1ccccc1)C(=O)NCC(c1ccco1)S(=O)(=O)c1ccccc1 (stereo not drawn),inactive,–
Cc1nc2c(C(=O)NCc3ccco3)cnn2c(C)c1Cc1ccc(F)cc1Cl,"inconclusive [inhibitor, single point]",–
COc1ccccc1-c1cn[nH]c1-c1ccc(OCc2ccc([N+](=O)[O-])cc2)cc1O,inactive,–
CCCN(CCC)c1nn2c(=O)c(C(=O)NCc3cccc(OC)c3)cnc2s1,active: 16.4 µM,–
Cc1onc(-c2ccccc2Cl)c1C(=O)Nc1nc2ccc(S(C)(=O)=O)cc2s1,active: 9.2 µM,–
CCCCNC(=O)c1onc(CSc2ccccn2)c1C(=O)NCCCC,"inconclusive [inhibitor, single point]",–
CCCCN1C(=O)C(O)(c2c(C)[nH]c3ccccc23)c2cc(Br)ccc21 (stereo not drawn),active: 4.11 µM,–
Cc1ccc(NC(=O)C2(NC(=O)c3ccccn3)CCCCC2)cc1Br,"inconclusive [inhibitor, single point]",–
CCN(CC)c1nc2ccccc2nc1C(C#N)C(=O)NCCCOC (stereo not drawn),"inconclusive [inhibitor, single point]",–
CC(C)CN(C(=O)c1ccco1)c1nc2ccccc2s1,"inconclusive [inhibitor, single point]",–
COc1cccc(C(O)c2nc(-c3cc(F)cc(F)c3)cs2)c1 (stereo not drawn),"inconclusive [inhibitor, single point]",–
Brc1ccccc1OCCCCCN1CCOCC1,"inconclusive [inhibitor, single point]",–
Cc1noc(C)c1C(=O)OC(C)C(=O)c1c[nH]c2ccccc12 (stereo not drawn),"inconclusive [inhibitor, single point]",–
O=C(O)c1cc([N+](=O)[O-])ccc1N1CCC(Cc2ccccc2)CC1,inactive,–
CCOC(=O)C(C)n1cnc2sc3c(c2c1=O)CCC3 (stereo not drawn),inactive,–
Cc1cccc(N2CCN(C(=O)CCS(=O)(=O)c3ccc4c(c3)NC(=O)CO4)CC2)c1C,"inconclusive [inhibitor, single point]",–
O=C(NCCOc1ccccc1)N1[C@H]2CC[C@@H]1C=C(c1ccc(F)cc1OCc1ccccc1)C2,"inconclusive [inhibitor, single point]",–
Cc1cc(C(=O)c2cnc(/N=C/N(C)C)s2)c(F)cc1Cl,"inconclusive [inhibitor, single point]",–
CCn1ncc(C2=NOC(C(=O)Nc3cccc(C(C)=O)c3)C2)c1C (stereo not drawn),active: 20.6 µM,–
O=C(Nc1cccc(Cl)c1)C1CCCN(c2cnccn2)C1 (stereo not drawn),"inconclusive [inhibitor, single point]",–

SMILES,Potency,"activity change, negative = growth inhibition"
O=C(Cc1c[nH]c2ccccc12)N1CCc2ccccc21,–,inconclusive: -32.7% [inhibitor]
C/C(=N\NC(=S)NC(C)C)c1ccc(C(C)(C)C)cc1,active: 20.6 µM,–
CCN1CCC(O)(/C=C/c2ccc(C(C)C)cc2)C(C(=O)/C=C/c2ccc(C(C)C)cc2)C1 (stereo not drawn),active: 23.1 µM,–
O=[N+]([O-])c1cccc(/C=N\N2CCN(c3ccc(Cl)cc3)CC2)c1,"inconclusive [inhibitor, partial curve, poor fit]",–
N#CC(=Cc1ccccn1)c1nc(-c2ccc(Cl)cc2)cs1,"inconclusive [inhibitor, single point]",–
CN(C)c1ccc(CNC(=O)C2(C)Cc3c(-c4ccc5c(c4)OCO5)ccnc3O2)cc1 (stereo not drawn),active: 3.66 µM,–
Cc1ccc(C(=O)Nc2ccc(C(=O)N/N=C/c3ccccn3)cc2)cc1,"inconclusive [inhibitor, single point]",–
CCCCn1c(N)c(N(CCOC)C(=O)COC(=O)c2ccccc2NCCO)c(=O)[nH]c1=O,inactive,–
COc1ccc(Cl)cc1NC(=O)CSc1nnc(C)n2c1cc1occc12,"inconclusive [inhibitor, single point]",–
Cc1ccc(NC2CCCN(C(=O)c3cn4cc(Cl)ccc4n3)C2)cc1C (stereo not drawn),"inconclusive [inhibitor, single point]",–
O=[N+]([O-])c1ccc(Nc2nc(NCCO)nc(N3CCCC3)n2)cc1,active: 20.6 µM,–
COc1ccc(NC(=O)c2cc3c(=O)n(C)c4ccccc4c3n2C)cc1Cl,"inconclusive [inhibitor, single point]",–
NC(=O)c1nc(C(=O)N2CCCCC2)c2ccccc2n1,inactive,–
Cc1nc2ccc(NC(=O)c3ccccc3)cc2c(=O)n1Cc1ccc(F)cc1,active: 13 µM,–
COCc1nnc(NS(=O)(=O)c2ccc(Cl)cc2)s1,inactive,–
CCOC(=O)C1(CCCc2ccccc2)CCN(C(=O)C2=C(C)OCCO2)CC1,active: 20.6 µM,–
O=[N+]([O-])c1ccc(Cl)cc1Sc1cccc2cccnc12,–,inconclusive: -30.4% [inhibitor]
COC(=O)c1ccc(COc2ccccc2/C=N/Nc2cccc(C(=O)O)c2)cc1,"inconclusive [inhibitor, single point]",–
CCOC(=O)c1cc2cc3ccccc3cc2[nH]1,"inconclusive [inhibitor, single point]",–
Cc1ccc(OCC(=O)N2CCCCC2C)c([N+](=O)[O-])n1 (stereo not drawn),inactive,–
O=S(=O)(O)c1ccc(O)c2cc(Nc3ccccc3)ccc12,inactive,–
Cc1ccccc1-c1cc2c(c3c1ccn3C)C1CCC2C1 (stereo not drawn),inactive,–
Cc1ccccc1CC1(CO)CCCN(C(=O)c2ccoc2)C1 (stereo not drawn),"inconclusive [inhibitor, partial curve]",–
COc1cc(C(=O)N/N=C2\CCS(=O)(=O)c3ccc(F)cc32)cc(OC)c1OC,"inconclusive [inhibitor, partial curve]",–
S=C(Nc1ccccc1Cl)NC1CC2CCCC(C1)N2C1CC1 (stereo not drawn),"inconclusive [inhibitor, single point]",–

SMILES,Potency,"activity change, negative = growth inhibition"
COc1ccc(OC)c(N(CC(=O)NC2CCCC2)S(=O)(=O)c2ccc(OC)c(OC)c2)c1,active: 14.6 µM,–
COC(=O)N/N=C/c1cccc(OCCSc2ccc(Cl)cc2)c1,"inconclusive [inhibitor, single point]",–
Clc1ccc(Sc2cnc3ccccc3n2)cc1,"inconclusive [inhibitor, partial curve, poor fit]",–
N#CC(C(=O)Nc1ccc(Cl)cc1)=C1Nc2ccccc2N1,"inconclusive [inhibitor, partial curve]",–
CCn1cc(C(=O)NCCCOC(C)C)c(=O)c2cc(S(=O)(=O)N3CCCC3)ccc21,inactive,–
Clc1c(-c2ccccc2)nnn1-c1ccccc1,inactive,–
CCc1ccc(C(=O)/C=C/Nc2ccc(S(=O)(=O)Nc3cnc4ccccc4n3)cc2)cc1,inactive,–
CCN(CC)C(=O)c1[nH]cnc1C(=O)Nc1ccon1,inactive,–
COc1ccc(NC(=O)c2cnn(-c3ccccc3)c2C)cc1,"inconclusive [inhibitor, single point]",–
Cn1nc(C(=O)N2CCc3ccccc32)c2ccccc2c1=O,"inconclusive [inhibitor, partial curve]",–
CCCCn1c(N)c(N(CCC(C)C)C(=O)CSc2nc3ccccc3s2)c(=O)[nH]c1=O,–,inconclusive: -30.8% [inhibitor]
Cc1oc(-c2ccccc2)nc1C(=O)OCC(=O)NC(=O)NCC(C)C,inactive,–
Cc1ccc(N2CCN(C3C(=O)Nc4ccccc4-n4nnnc43)CC2)cc1 (stereo not drawn),"inconclusive [inhibitor, single point]",–
CCC(C)Sc1ccc([C@H]2N[C@@](Cc3ccccc3)(C(=O)OC)[C@H]3C(=O)N(CC)C(=O)[C@@H]23)cc1OC (stereo partly drawn),active: 20.6 µM,–
Cc1c(C(=O)NCc2ccc(F)cc2)sc2ncnc(NCC3CCCO3)c12 (stereo not drawn),inactive,–
O=C(NCc1ccc(Cl)cc1)c1ccccc1Oc1ccccc1,"inconclusive [inhibitor, partial curve]",–
CCOC(=O)N1CCN(C(=O)CCl)CC1,"inconclusive [inhibitor, single point]",–
COC(=O)/C(=N/Nc1ccccc1)N1CCCc2ccccc21,"inconclusive [inhibitor, single point]",–
C=CCn1c(=O)c2c(nc(Br)n2Cc2ccccc2Cl)n(C)c1=O,"inconclusive [inhibitor, single point]",–
Cc1cccc(C)c1NC(=O)C(CCc1ccccc1)n1c(=O)c(-c2cc3ccccc3[nH]2)nc2ccccc21 (stereo not drawn),active: 6.51 µM,–
Cc1ccc(NC(=O)C2CCCN(S(=O)(=O)c3cccnc3)C2)cc1C (stereo not drawn),"inconclusive [inhibitor, partial curve]",–
O=C(CSc1nnc(CNc2cccc(C(F)(F)F)c2)n1Cc1ccco1)NCc1ccco1,"inconclusive [inhibitor, single point]",–
COC(=O)c1cc(NC(=O)Nc2cccc(Cl)c2)ccc1Cl,active: 18.4 µM,–
